The supplement of paper PMC4604168 (melanoma cell lines)
Some of the results follow. Most values come without repeats; read them as rough.

tested on: WM115; test: cell count relative to DMSO control; melanoma cells; higher = more viable cells; details: library dose: low library concentration; 72 h
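Note: cell number obtained by counting DAPI-stained nuclei in high-throughput microscope images with image analysis software, screen run in 1,536-well plates.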

Structure (SMILES)	cell count
Nc1cccc2c1CN(C1CCC(=O)NC1=O)C2=O (stereo unspecified) [lenalidomide] + O=C(CCCCCCC(=O)Nc1ccccc1)NO [vorinostat] (first compound 1 µM, partner dose 0.08 µM)	105%
O=C(CCCCCCC(=O)Nc1ccccc1)NO [vorinostat] + O=S(=O)(c1ccccc1)N(CC(F)(F)F)c1ccc(C(O)(C(F)(F)F)C(F)(F)F)cc1 [T0901317] (first compound 0.08 µM, partner dose 1.4 µM)	91.7%
OCc1c[nH]c2ccccc12 [Indole-3-carbinol] + COCC[n+]1c2c(n(Cc3cnccn3)c1C)C(=O)c1ccccc1C2=O [YM155] (first compound 0.8 µM, partner dose 0.0004 µM)	113%
COCC[n+]1c2c(n(Cc3cnccn3)c1C)C(=O)c1ccccc1C2=O + C=CCn1c(=O)c2cnc(Nc3ccc(N4CCN(C)CC4)cc3)nc2n1-c1cccc(C(C)(C)O)n1 [MK1775] (first compound 0.0004 µM, partner dose 0.02 µM)	82.6%
C#Cc1cccc(Nc2ncnc3cc(OCCOC)c(OCCOC)cc23)c1 [erlotinib] + COCC[n+]1c2c(n(Cc3cnccn3)c1C)C(=O)c1ccccc1C2=O [YM155] (first compound 0.8 µM, partner dose 0.0004 µM)	89.6%
C#Cc1cccc(Nc2ncnc3cc(OCCOC)c(OCCOC)cc23)c1 [erlotinib] + Cc1nc(Nc2ncc(C(=O)Nc3c(C)cccc3Cl)s2)cc(N2CCN(CCO)CC2)n1 [dasatanib] (first compound 0.8 µM, partner dose 0.004 µM)	73.6%
Clc1ccc(Nc2nnc(Cc3ccncc3)c3ccccc23)cc1 [vatalanib] + CN(C)S(=O)(=O)c1ccc2c(c1)/C(=C/c1cc3c([nH]1)CCCC3)C(=O)N2 [SU6656] (first compound 2 µM, partner dose 0.4 µM)	85.5%
Cn1c(Nc2ccc(C(F)(F)F)cc2)nc2cc(Oc3ccnc(-c4ncc(C(F)(F)F)[nH]4)c3)ccc21 + C[C@@H]1CCN(C(=O)CC#N)C[C@@H]1N(C)c1ncnc2[nH]ccc12 [CP690550] (first compound 0.08 µM, partner dose 1 µM)	56.7%
Cn1c(Nc2ccc(C(F)(F)F)cc2)nc2cc(Oc3ccnc(-c4ncc(C(F)(F)F)[nH]4)c3)ccc21 + Nc1cccc2c1CN(C1CCC(=O)NC1=O)C2=O [lenalidomide] (first compound 0.08 µM, partner dose 1 µM)	48.8%
Nc1cccc2c1CN(C1CCC(=O)NC1=O)C2=O (stereo unspecified) [lenalidomide] + O=S(=O)(c1ccccc1)N(CC(F)(F)F)c1ccc(C(O)(C(F)(F)F)C(F)(F)F)cc1 [T0901317] (first compound 1 µM, partner dose 1.4 µM)	81.1%
COCC[n+]1c2c(n(Cc3cnccn3)c1C)C(=O)c1ccccc1C2=O + O=S(=O)(c1ccccc1)N(CC(F)(F)F)c1ccc(C(O)(C(F)(F)F)C(F)(F)F)cc1 [T0901317] (first compound 0.0004 µM, partner dose 1.4 µM)	100%
Nc1cccc2c1CN(C1CCC(=O)NC1=O)C2=O (stereo unspecified) [lenalidomide] + NCC(=O)Nc1ccc(-n2nc(C(F)(F)F)cc2-c2ccc3c(ccc4ccccc43)c2)cc1 [OSU03012] (first compound 1 µM, partner dose 1 µM)	87.9%
Clc1ccc(Nc2nnc(Cc3ccncc3)c3ccccc23)cc1 [vatalanib] + CN(NC(=O)CC(=O)NN(C)C(=S)c1ccccc1)C(=S)c1ccccc1 [STA4783] (first compound 2 µM, partner dose 0.006 µM)	94.4%
Clc1ccc(Nc2nnc(Cc3ccncc3)c3ccccc23)cc1 [vatalanib] + C[C@@H]1CCN(C(=O)CC#N)C[C@@H]1N(C)c1ncnc2[nH]ccc12 [CP690550] (first compound 2 µM, partner dose 1 µM)	97.3%
Cn1c(Nc2ccc(C(F)(F)F)cc2)nc2cc(Oc3ccnc(-c4ncc(C(F)(F)F)[nH]4)c3)ccc21 + OCCn1cc(-c2cnc3nnn(Cc4ccc5ncccc5c4)c3n2)cn1 [PF04217903] (first compound 0.08 µM, partner dose 1 µM)	66.9%
Cn1c(Nc2ccc(C(F)(F)F)cc2)nc2cc(Oc3ccnc(-c4ncc(C(F)(F)F)[nH]4)c3)ccc21 + O=C(Nc1ccccc1)c1cc([N+](=O)[O-])ccc1Cl [GW9662] (first compound 0.08 µM, partner dose 2 µM)	63.3%
OCc1c[nH]c2ccccc12 [Indole-3-carbinol] + C=CCn1c(=O)c2cnc(Nc3ccc(N4CCN(C)CC4)cc3)nc2n1-c1cccc(C(C)(C)O)n1 [MK1775] (first compound 0.8 µM, partner dose 0.02 µM)	83.6%
OCc1c[nH]c2ccccc12 [Indole-3-carbinol] + CN(NC(=O)CC(=O)NN(C)C(=S)c1ccccc1)C(=S)c1ccccc1 [STA4783] (first compound 0.8 µM, partner dose 0.006 µM)	86.4%
OCc1c[nH]c2ccccc12 [Indole-3-carbinol] + C[C@@H]1CCN(C(=O)CC#N)C[C@@H]1N(C)c1ncnc2[nH]ccc12 [CP690550] (first compound 0.8 µM, partner dose 1 µM)	98.4%
C#Cc1cccc(Nc2ncnc3cc(OCCOC)c(OCCOC)cc23)c1 [erlotinib] + OCCn1cc(-c2cnc3nnn(Cc4ccc5ncccc5c4)c3n2)cn1 [PF04217903] (first compound 0.8 µM, partner dose 1 µM)	91.8%
COCC[n+]1c2c(n(Cc3cnccn3)c1C)C(=O)c1ccccc1C2=O + CO[C@@H]1[C@H](N(C)C(=O)c2ccccc2)C[C@H]2O[C@]1(C)n1c3ccccc3c3c4c(c5c6ccccc6n2c5c31)C(=O)NC4 [Midostaurin] (first compound 0.0004 µM, partner dose 0.08 µM)	80.1%
O=C(CCCCCCC(=O)Nc1ccccc1)NO [vorinostat] + O=C(O)c1ccc(-c2c[nH]c3ncc(-c4ccccc4)cc23)cc1C1CCCC1 [GSK650394] (first compound 0.08 µM, partner dose 0.16 µM)	99.6%
COCC[n+]1c2c(n(Cc3cnccn3)c1C)C(=O)c1ccccc1C2=O + O=C(Nc1cccc(Cl)c1)Nc1ncc(CCNc2ncnc3ccsc23)s1 [SNS314] (first compound 0.0004 µM, partner dose 0.0008 µM)	83.6%
OCc1c[nH]c2ccccc12 [Indole-3-carbinol] + NC(=O)Nc1cc(-c2cccc(F)c2)sc1C(=O)N[C@H]1CCCNC1 [AZD7762] (first compound 0.8 µM, partner dose 0.02 µM)	88.2%
OCc1c[nH]c2ccccc12 [Indole-3-carbinol] + O=C(O)C(=O)Nc1sc2c(c1C(=O)O)CCNC2 [TCS401] (first compound 0.8 µM, partner dose 1.66667 µM)	103%
Clc1ccc(Nc2nnc(Cc3ccncc3)c3ccccc23)cc1 [vatalanib] + NCC(=O)Nc1ccc(-n2nc(C(F)(F)F)cc2-c2ccc3c(ccc4ccccc43)c2)cc1 [OSU03012] (first compound 2 µM, partner dose 1 µM)	86%
